Test results from the supplement of paper PMC3334620.
Whole data set: some 33,000 sequences, median “E-score (-0.5 to 0.5)” near -0.035, cut for the highest 2% near 0.34. Some of the results follow.

The sequences below were run against T1, Mot3 (UniProt P54785) (assay: PBM E-score (8-mer binding enrichment) (E-score (-0.5 to 0.5)); higher = stronger / more preferred TF binding; most listed sequences are background and not binding sites). Conditions: protein concentration: 200 nM; construct: GST-full length.
T1 sequence: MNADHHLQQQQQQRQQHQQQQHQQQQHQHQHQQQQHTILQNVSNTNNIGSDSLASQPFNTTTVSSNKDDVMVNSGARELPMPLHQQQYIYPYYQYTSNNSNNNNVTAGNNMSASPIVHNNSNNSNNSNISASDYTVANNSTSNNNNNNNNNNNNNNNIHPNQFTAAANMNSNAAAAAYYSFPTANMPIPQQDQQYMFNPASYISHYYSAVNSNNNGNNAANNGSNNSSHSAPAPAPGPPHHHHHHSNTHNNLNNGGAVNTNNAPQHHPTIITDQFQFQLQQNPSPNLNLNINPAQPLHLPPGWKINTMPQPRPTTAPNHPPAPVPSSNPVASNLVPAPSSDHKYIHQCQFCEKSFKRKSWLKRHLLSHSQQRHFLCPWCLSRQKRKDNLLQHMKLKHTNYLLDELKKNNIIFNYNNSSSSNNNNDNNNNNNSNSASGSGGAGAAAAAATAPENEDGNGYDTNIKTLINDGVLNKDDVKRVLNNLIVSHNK
How it was run: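 The E-score, a modified Wilcoxon-Mann-Whitney statistic, was computed by the Universal PBM Analysis Suite for every ungapped eight-base word pooled with its reverse complement. Scans behind it were normalised with masliner after bound GST-tagged yeast transcription factors were detected with fluorescent anti-GST. The proteins, at about 100-200 nM, had been applied to universal all-10-mer Agilent arrays made double-stranded by primer extension.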

Sequence	PBM E-score
ATCTCGTA	0.104
AAGCTATA	-0.00123
CGAAATAC	0.0685
GTTGCGTA	0.278
CAGCCATG	0.0677
CGTAACGC	0.113
AGGTCAAG	-0.0903
GCAGCTCC	-0.2
CCCGCTTA	-0.244
CAAGGGTC	-0.219
AGCAAATA	-0.00724
GGCTCTAA	0.0881
CTGCGTGA	0.111
AAGATTGC	0.0785
GGGTTGCA	0.106
GGTATGAA	0.00221
CCAGATAG	-0.123
AAAGTTAT	0.169
CGGTATTC	-0.027
ATGGAGAC	-0.228
CATGCACC	0.0817
CTCGAGTC	-0.122

Sequence	PBM E-score
GAGCCCAA	-0.136
ATTATATC	0.0718
AGAATTGC	0.0267
AGTGCTAC	-0.0891
CAAGCTGC	-0.00705
CCAAGGAC	-0.205
CAATAACA	0.241
AGAACGCA	0.0555
TCGATCAA	-0.045
TGAGCAAA	-0.0898
ACACCGAT	0.0564
AGTTGACA	0.183
ACCGCATA	0.0346
CCGGCGTC	-0.189
CTCGCGTC	-0.0669
CAATATAC	0.0688
ACTATTCT	0.0156
CGTGCTTA	0.145
GCCATCCC	-0.168
ACAGACAC	0.138
CCTACATC	-0.0321
GCTCATCA	-0.0165

Sequence	PBM E-score
GAATTATC	0.0318
CACAAAAC	0.219
CCCCATCC	-0.28
ATAAGGTG	0.206
GACATCGC	0.0096
ATGGTCCA	-0.0445
TCGGACAA	-0.133
TTAGATAA	0.0208
CGTGCATA	0.0644
AGGTACAT	0.367
CCCTAGGA	-0.191
CGGTTTCC	-0.0596
CAACAGTC	-0.167
AATCACGA	-0.189
CTCGTATC	-0.0313
TCTGTCAA	0.0185
CTGTCTGA	-0.00697
ATGTCCGC	-0.18
AGTCAGTA	0.00564
GCTCCTCA	-0.332
ATAATTTC	-0.00851
ATAGGAAA	0.429

Sequence	PBM E-score
AGTCCTTC	-0.0861
ATCCTATC	-0.144
GTGAGACA	-0.288
GCCAAACC	-0.297
ACGAACCC	-0.07
CCGAAGAA	-0.223
TATACTCA	0.136
ACTCAACC	-0.0726
GCCGGCCA	-0.218
ACCCCAAT	-0.162
GAGCTAAC	-0.0447
AGTCAGTC	-0.219
AATTCCGG	-0.0255
CGAGCGGC	-0.214
CAAAGCAA	0.0343
CCCATCCA	-0.275
CGATGCCG	-0.268
AGTACACG	0.357
CATACTAC	0.108
GGTAACAA	0.203
GACGCGTA	0.284
AGAAACGG	-0.079

Sequence	PBM E-score
GCTGATTA	0.144
CAGCTCGA	-0.265
AGTCGCCG	-0.214
AAGTTGTC	-0.00484
CGGGGATC	-0.303
CTGTTCCC	-0.157
GAAATCAC	0.198
AAAATTCT	0.015
AGACACTA	-0.0445
GATAGGGA	-0.155
ACCCAAAT	0.179
CCGCTACC	-0.223
AATCATAA	0.0305
TAAGTGCA	0.0199
ATGTGGTC	-0.0678
ATTCCAAG	0.00035
GGATGCTA	-0.276
ATGTCCCA	-0.224
ACCCCGCT	-0.322
CACTCGGA	-0.0306
TACCTGCA	0.403
